The values below come from PubChem BioAssay (NCI).

Molecules are shown by their SMILES.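 96-well plates; 48 h exposure; 5 concentrations. Endpoints by linear interpolation between flanking doses. Not reached: highest tested concentration assigned. GI50 is the concentration that inhibits growth by half. Definition used: TGI = concentration required for complete inhibition of growth.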

For this assay, the system named is NCI-H322M lung. The assay can be described thus: NCI anticancer screen, dose series, 48 h.
Regarding `N#Cc1c(NC(=O)c2cccc(C(F)(F)F)c2F)sc2c1CCC(=O)C2`, the GI50 was 2980 nM and the TGI is > 70400 nM.

In the case of `[Cl][Ru].c1ccc(-c2cc(-c3ccccn3)nc(-c3ccccn3)c2)cc1.c1ccc(-c2ccnc3c2ccc2c(-c4ccccc4)ccnc23)cc1`, the GI50 was 429 nM and the TGI stood at 2780 nM.

As to `CCOC(=O)c1c(NC(=O)c2cccc(C(F)(F)F)c2)sc2c(CN3CCN(C)CC3)c(O)ccc12`, the GI50 is 1570 nM and the TGI was 2980 nM.
